Some of the results follow. The list includes weakly bound sequences.

The test addresses T1, MBP-FoxP3dN (UniProt Q99JB6).
T1 sequence: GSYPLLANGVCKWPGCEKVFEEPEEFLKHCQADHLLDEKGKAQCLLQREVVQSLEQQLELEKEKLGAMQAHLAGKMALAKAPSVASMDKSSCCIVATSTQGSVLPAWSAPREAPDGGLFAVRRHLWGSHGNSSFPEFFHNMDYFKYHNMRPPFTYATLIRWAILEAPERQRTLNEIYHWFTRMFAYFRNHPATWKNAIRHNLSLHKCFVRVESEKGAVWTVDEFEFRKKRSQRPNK
The experiment in a line: PD-seq (MBP pull-down with sequencing). Particulars: 20 mM Tris-HCl pH 7.5, 100 mM NaCl, 1.5 mM MgCl2, 0.4 uM protein, 0.1 uM dsDNA library, 30 min, room temperature, amylose pull-down; high values mean tight binding; double strand, one strand shown.
For “GATGATTGTTCTCCCAGCTGATGAATTTAGGTTGTCGAGTAAACAAATTTTCCTAATCTTTCTGTTCAAGCGCCATCTAC”, the binding signal (RPM ratio (pull-down/input)) came out at 1.05.
In the case of “GATGATTGTTCTCCCAGCTGATGAATTGACCCGGTCGAGTAAACAAATTTTCCTAATCTTTCTGTTCAAGCGCCATCTAC”, the binding signal (RPM ratio (pull-down/input)) is 0.19.
Turning to “GATGATTGTTCTCCCAGCTGATGAATTCGATTTCTCGAGTAAACAAATTTTCCTAATCTTTCTGTTCAAGCGCCATCTAC”, the binding signal (RPM ratio (pull-down/input)) stood at 1.83.
On to “GATGATTGTTCTCCCAGCTGATGAATTTGACAAGTCGAGTAAACAAATTTTCCTAATCTTTCTGTTCAAGCGCCATCTAC”, for which the binding signal (RPM ratio (pull-down/input)) turned out to be 0.261.
“GATGATTGTTCTCCCAGCTGATGAATTTTCTTCGTCGAGTAAACAAATTTTCCTAATCTTTCTGTTCAAGCGCCATCTAC”: the binding signal (RPM ratio (pull-down/input)) came out at 0.27.
With “GATGATTGTTCTCCCAGCTGATGAATTTGGATGATCGAGTAAACAAATTTTCCTAATCTTTCTGTTCAAGCGCCATCTAC”, the binding signal (RPM ratio (pull-down/input)) was 0.576.
As to “GATGATTGTTCTCCCAGCTGATGAATTGGTTCTTTCGAGTAAACAAATTTTCCTAATCTTTCTGTTCAAGCGCCATCTAC”, the binding signal (RPM ratio (pull-down/input)) is 0.363.
In the case of “GATGATTGTTCTCCCAGCTGATGAATTGGTGTTCTCGAGTAAACAAATTTTCCTAATCTTTCTGTTCAAGCGCCATCTAC”, the binding signal (RPM ratio (pull-down/input)) came to 2.16.
Regarding “GATGATTGTTCTCCCAGCTGATGAATTCCCAACATCGAGTAAACAAATTTTCCTAATCTTTCTGTTCAAGCGCCATCTAC”, the binding signal (RPM ratio (pull-down/input)) amounted to 0.727.
For “GATGATTGTTCTCCCAGCTGATGAATTATTTGCATCGAGTAAACAAATTTTCCTAATCTTTCTGTTCAAGCGCCATCTAC”, the binding signal (RPM ratio (pull-down/input)) amounted to 2.47.
Under “GATGATTGTTCTCCCAGCTGATGAATTAGAACGGTCGAGTAAACAAATTTTCCTAATCTTTCTGTTCAAGCGCCATCTAC” stands 0.227.
For the sequence “GATGATTGTTCTCCCAGCTGATGAATTGTCCGAATCGAGTAAACAAATTTTCCTAATCTTTCTGTTCAAGCGCCATCTAC”, the binding signal (RPM ratio (pull-down/input)) was found to be 0.272.
As for “GATGATTGTTCTCCCAGCTGATGAATTGCTTGGATCGAGTAAACAAATTTTCCTAATCTTTCTGTTCAAGCGCCATCTAC”, the binding signal (RPM ratio (pull-down/input)) stood at 0.598.
Under “GATGATTGTTCTCCCAGCTGATGAATTCTTAACTTCGAGTAAACAAATTTTCCTAATCTTTCTGTTCAAGCGCCATCTAC” stands 0.283; under “GATGATTGTTCTCCCAGCTGATGAATTGCCATTGTCGAGTAAACAAATTTTCCTAATCTTTCTGTTCAAGCGCCATCTAC”, 1.24; under “GATGATTGTTCTCCCAGCTGATGAATTACCGCCATCGAGTAAACAAATTTTCCTAATCTTTCTGTTCAAGCGCCATCTAC”, 2.45.
Regarding “GATGATTGTTCTCCCAGCTGATGAATTACTCCCATCGAGTAAACAAATTTTCCTAATCTTTCTGTTCAAGCGCCATCTAC”, the binding signal (RPM ratio (pull-down/input)) stood at 0.306.
Under “GATGATTGTTCTCCCAGCTGATGAATTGTCGATTTCGAGTAAACAAATTTTCCTAATCTTTCTGTTCAAGCGCCATCTAC” stands 0.547; under “GATGATTGTTCTCCCAGCTGATGAATTGTGATGATCGAGTAAACAAATTTTCCTAATCTTTCTGTTCAAGCGCCATCTAC”, 2.48.
Under “GATGATTGTTCTCCCAGCTGATGAATTAGACTATTCGAGTAAACAAATTTTCCTAATCTTTCTGTTCAAGCGCCATCTAC” stands 0.444.
In the case of “GATGATTGTTCTCCCAGCTGATGAATTTTCATATTCGAGTAAACAAATTTTCCTAATCTTTCTGTTCAAGCGCCATCTAC”, the binding signal (RPM ratio (pull-down/input)) was 0.425.
In the case of “GATGATTGTTCTCCCAGCTGATGAATTCGGATTATCGAGTAAACAAATTTTCCTAATCTTTCTGTTCAAGCGCCATCTAC”, the binding signal (RPM ratio (pull-down/input)) came out at 0.708.
For “GATGATTGTTCTCCCAGCTGATGAATTTTTGGCTTCGAGTAAACAAATTTTCCTAATCTTTCTGTTCAAGCGCCATCTAC”, the binding signal (RPM ratio (pull-down/input)) came out at 0.282.
Under “GATGATTGTTCTCCCAGCTGATGAATTGGCCGTATCGAGTAAACAAATTTTCCTAATCTTTCTGTTCAAGCGCCATCTAC” stands 0.451; under “GATGATTGTTCTCCCAGCTGATGAATTAAAGGCTTCGAGTAAACAAATTTTCCTAATCTTTCTGTTCAAGCGCCATCTAC”, 0.436.
With “GATGATTGTTCTCCCAGCTGATGAATTGACAAAATCGAGTAAACAAATTTTCCTAATCTTTCTGTTCAAGCGCCATCTAC”, the binding signal (RPM ratio (pull-down/input)) amounted to 0.373.
Consider “GATGATTGTTCTCCCAGCTGATGAATTCTCGTTTTCGAGTAAACAAATTTTCCTAATCTTTCTGTTCAAGCGCCATCTAC”, for which the binding signal (RPM ratio (pull-down/input)) amounted to 0.442.
“GATGATTGTTCTCCCAGCTGATGAATTTTCAGTCTCGAGTAAACAAATTTTCCTAATCTTTCTGTTCAAGCGCCATCTAC”: the binding signal (RPM ratio (pull-down/input)) was 0.301.
With “GATGATTGTTCTCCCAGCTGATGAATTGATTGAGTCGAGTAAACAAATTTTCCTAATCTTTCTGTTCAAGCGCCATCTAC”, the binding signal (RPM ratio (pull-down/input)) was determined as 0.467.
Take “GATGATTGTTCTCCCAGCTGATGAATTCACGCCCTCGAGTAAACAAATTTTCCTAATCTTTCTGTTCAAGCGCCATCTAC”: the binding signal (RPM ratio (pull-down/input)) is 0.741.
On to “GATGATTGTTCTCCCAGCTGATGAATTCTCGCGTTCGAGTAAACAAATTTTCCTAATCTTTCTGTTCAAGCGCCATCTAC”, for which the binding signal (RPM ratio (pull-down/input)) turned out to be 1.27.
Take “GATGATTGTTCTCCCAGCTGATGAATTTCCAGAGTCGAGTAAACAAATTTTCCTAATCTTTCTGTTCAAGCGCCATCTAC”: the binding signal (RPM ratio (pull-down/input)) is 0.159.

Values taken from paper PMC12820563.
